Measured values published in paper PMC10726135.
Some of the results follow. At the low end of the ranking the order means little. The protein was read in a cell extract, so binding may be indirect.

Biological target: T1, HNF4alpha2 (COS-7 nuclear extract) (UniProt P41235)
T1 sequence: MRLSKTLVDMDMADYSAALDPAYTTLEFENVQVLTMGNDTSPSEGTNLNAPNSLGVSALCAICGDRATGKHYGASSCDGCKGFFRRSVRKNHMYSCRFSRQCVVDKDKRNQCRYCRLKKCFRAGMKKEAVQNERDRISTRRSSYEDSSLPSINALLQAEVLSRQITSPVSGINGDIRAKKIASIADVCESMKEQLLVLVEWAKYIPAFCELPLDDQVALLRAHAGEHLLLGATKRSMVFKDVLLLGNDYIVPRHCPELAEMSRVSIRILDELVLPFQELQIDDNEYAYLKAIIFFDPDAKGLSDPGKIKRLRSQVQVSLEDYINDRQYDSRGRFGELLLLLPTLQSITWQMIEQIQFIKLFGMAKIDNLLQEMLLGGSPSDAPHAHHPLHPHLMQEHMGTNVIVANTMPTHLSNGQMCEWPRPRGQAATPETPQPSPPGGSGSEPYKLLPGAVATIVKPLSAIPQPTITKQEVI
Assay: protein-binding microarray
Settings: COS-7 nuclear extract on double-stranded Agilent 4x180k PBM; binding buffer, salt, pH and temperature not given; high values mean tight binding; double strand, one strand shown; sequences stand for … in …GCCTAGGGAGATTAGAGTATCGGTCGA

**Q.** With GCCTGCCCTTCGCTCCCCGACCTCCTGCTG as the sequence, how does the binding signal (log2 normalized intensity) read?
**A.** 2.42

**Q.** How did the binding signal (log2 normalized intensity) turn out when AAATTCCGGGGCTGGAATTTGAACCCAAGC was run?
**A.** 5.71

**Q.** Which binding signal (log2 normalized intensity) does the source give for CTGAGTATTATCTTTTTAATCAATAATCTT here?
**A.** 1.01

**Q.** For GTGTATCAATGGCCCCAGTGCACGTGCATG, which binding signal (log2 normalized intensity) is on record?
**A.** 1.12

**Q.** For CACTGCCCATCCCCACTGAAAGTGTGTTAA, which binding signal (log2 normalized intensity) is on record?
**A.** 1.93

**Q.** TATTGGAAGAATGGAATTGCCATTGACTGA was tested. Which binding signal (log2 normalized intensity) did it give?
**A.** 0.347

**Q.** With ATCGAAAATCCCCCACCATTGTTATCTGAT as the sequence, how does the binding signal (log2 normalized intensity) read?
**A.** 2.78

**Q.** With CTAGATAAGGGAGATGAAAGGGGCCTCAGA as the sequence, how does the binding signal (log2 normalized intensity) read?
**A.** -1.06

**Q.** For GGAGCATTAGTTGACCATTGTGTTAAAGGA, which binding signal (log2 normalized intensity) is on record?
**A.** 1.4

**Q.** How did the binding signal (log2 normalized intensity) turn out when TCACAAGAAAGGCAGAAAACTCAGATTCCT was run?
**A.** -1.2

**Q.** For TGGAGGCCCAGTAAGTCCCACCCACTAGGC, which binding signal (log2 normalized intensity) is on record?
**A.** 2.33

**Q.** Which binding signal (log2 normalized intensity) does the source give for CCCTCCCTAAATCCAGAGGTATTTGGCCCA here?
**A.** 1.59

**Q.** AAGAGAGGAGGCTGAAGACTTTGCACCAAG was tested. Which binding signal (log2 normalized intensity) did it give?
**A.** -1.09

**Q.** TGTTATCTCTGGAGGTCACTGCTGGTGGGT was tested. Which binding signal (log2 normalized intensity) did it give?
**A.** 2.03

**Q.** GGTCAGCAATGTGGACTTTGTCCTGTGGGC was tested. Which binding signal (log2 normalized intensity) did it give?
**A.** 7.77

**Q.** TCACTGCTCCAGCCACTCATTCTTGGAATG was tested. Which binding signal (log2 normalized intensity) did it give?
**A.** -0.838

**Q.** For CGGGAGGCAAGATAAGGGTAATCACCCCCA, which binding signal (log2 normalized intensity) is on record?
**A.** 2.34

**Q.** How did the binding signal (log2 normalized intensity) turn out when TGGAATGTGCTCCCGACTGCTCCACCAGCG was run?
**A.** -1.1

**Q.** With AAAGTCTGGATCCGTTAACAGCGGCATTCC as the sequence, how does the binding signal (log2 normalized intensity) read?
**A.** -1.04

**Q.** For GTGCTCCCCCACCCTGTGTCAGCATCTAAA, which binding signal (log2 normalized intensity) is on record?
**A.** 3.49

**Q.** With TTGCATAATCTGGCTCCAAAGTCTATGTGT as the sequence, how does the binding signal (log2 normalized intensity) read?
**A.** 2.47

**Q.** For AATACGCCTCGCCCGAGCTGTGCGGTAGGC, which binding signal (log2 normalized intensity) is on record?
**A.** -1.17

**Q.** For GGGAGGGCACAGGTCAAAAATGATGCCTGA, which binding signal (log2 normalized intensity) is on record?
**A.** 0.224

**Q.** Which binding signal (log2 normalized intensity) does the source give for AAACATAAAGGCAAAGGTCAAGGACTGTTC here?
**A.** 3.51

**Q.** CTCTCTGATTACACAGGCCTTATAGGGCAT was tested. Which binding signal (log2 normalized intensity) did it give?
**A.** -1.12

**Q.** Which binding signal (log2 normalized intensity) does the source give for GTGTGGATACGATGACATCATCTGTTTGTA here?
**A.** 1.6

**Q.** Which binding signal (log2 normalized intensity) does the source give for CAAGGGTCAGTTCATTAAAAAAAAAAAAAA here?
**A.** 1.19

**Q.** Which binding signal (log2 normalized intensity) does the source give for TCAAAGGGCAGACAGGAACATCTGATTTCC here?
**A.** -1.03

**Q.** With TGGTCCGCCTTCATTCCTAGCCCCACCAAA as the sequence, how does the binding signal (log2 normalized intensity) read?
**A.** 4.25

**Q.** With TGGCATGTGATAGGCATGCAAACTTTGTTT as the sequence, how does the binding signal (log2 normalized intensity) read?
**A.** 0.562

**Q.** For TCCCTCTGCTCCCCTGGCCTCACCCTTGTC, which binding signal (log2 normalized intensity) is on record?
**A.** 2.72

**Q.** CTGAAAGCAAACAATGATGAAAGGAGCTTG was tested. Which binding signal (log2 normalized intensity) did it give?
**A.** -0.976

**Q.** With GCACCTTTTAAAATAGATAAGTCCCTAAGA as the sequence, how does the binding signal (log2 normalized intensity) read?
**A.** -1.1

**Q.** With TTCCCTCGACTTCCTCTTCATATCAGTAAA as the sequence, how does the binding signal (log2 normalized intensity) read?
**A.** 1.53

**Q.** CAGGTCCAAGGTTCTCCAGGGACCCCCCGA was tested. Which binding signal (log2 normalized intensity) did it give?
**A.** 3.79

**Q.** For CTTCAAGTCAGTCAAAATGAATAGTCCTTT, which binding signal (log2 normalized intensity) is on record?
**A.** 1.19

**Q.** AGAGAAGATAATGGATTGGGGGCCATGTCT was tested. Which binding signal (log2 normalized intensity) did it give?
**A.** -0.23

**Q.** How did the binding signal (log2 normalized intensity) turn out when AGGCTGCCGTCCTCAGTGAATCACAGCAGC was run?
**A.** -1.08

**Q.** With GCTTTCTTTCCTAATGGTACCATCTGCCAC as the sequence, how does the binding signal (log2 normalized intensity) read?
**A.** 0.767

**Q.** For AGTCTGGTGGCAAGTACCCTTTATCCCTCA, which binding signal (log2 normalized intensity) is on record?
**A.** 1.18

**Q.** TCAGAGCAGGTGAACGACTTGACAAAGGTC was tested. Which binding signal (log2 normalized intensity) did it give?
**A.** 3.22

**Q.** For CTGGCTAAACCAGCCTAACAGGATTTTTGC, which binding signal (log2 normalized intensity) is on record?
**A.** -0.916

**Q.** Which binding signal (log2 normalized intensity) does the source give for GTCTGGCTGACTAACAAGCTGCCAAACTCT here?
**A.** -1.21

**Q.** Which binding signal (log2 normalized intensity) does the source give for TTATCATTCTAGAGGTCAGAAGTCCAAAAT here?
**A.** 4.62

**Q.** With CTTTGCCCCCCAAGTTGAAGCCATCCTCCC as the sequence, how does the binding signal (log2 normalized intensity) read?
**A.** 5.15

**Q.** For ACCGCACTGGAAGCAAGCCCTATTAGGCAT, which binding signal (log2 normalized intensity) is on record?
**A.** -1.21

**Q.** For TTTTAAAAGTATACTATATTTGTCCCACAT, which binding signal (log2 normalized intensity) is on record?
**A.** 0.317
